Some of the results follow. Many values rest on one well or one pass, so single values are uncertain.
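Note: cells treated in 1,536-well plates, then fixed and DAPI-stained, with nuclei counted from automated high-throughput microscope images.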

The test relates to SkMel5. The test is described as follows: cell count relative to DMSO control; melanoma cells; higher = more viable cells. The note with it: library dose: standard library concentration; 72 h.
In turn, `Cc1cc(Nc2cc(N3CCN(C)CC3)nc(Sc3ccc(NC(=O)C4CC4)cc3)n2)n[nH]1` [Tozasertib] + O=C(CCCCCCC(=O)Nc1ccccc1)NO [vorinostat] (first compound 0.03 µM, partner dose 0.4 µM) gave a cell count of 60.1%.

In the case of `Cc1cc(Nc2cc(N3CCN(C)CC3)nc(Sc3ccc(NC(=O)C4CC4)cc3)n2)n[nH]1` [Tozasertib] + Nc1nc(F)nc2c1ncn2[C@@H]1O[C@H](CO)[C@@H](O)[C@@H]1O [fludarabine] (first compound 0.03 µM, partner dose 1 µM), the cell count stood at 25.5%.

Regarding `N#CC[C@H](C1CCCC1)n1cc(-c2ncnc3[nH]ccc23)cn1` [ruxolitinib] + C=CCNC1=C2C[C@@H](C)C[C@H](OC)[C@H](O)[C@@H](C)/C=C(\C)[C@H](OC(N)=O)[C@@H](OC)/C=C\C=C(/C)C(=O)NC(=CC1=O)C2=O [Tanespimycin] (first compound 5 µM, partner dose 0.01 µM), the cell count worked out at 46.6%.

With `N#CC[C@H](C1CCCC1)n1cc(-c2ncnc3[nH]ccc23)cn1` [ruxolitinib] + CO[C@@H]1[C@H](N(C)C(=O)c2ccccc2)C[C@H]2O[C@]1(C)n1c3ccccc3c3c4c(c5c6ccccc6n2c5c31)C(=O)NC4 [Midostaurin] (first compound 5 µM, partner dose 0.4 µM), the cell count is 43.2%.

`Cc1cc(Nc2cc(N3CCN(C)CC3)nc(Sc3ccc(NC(=O)C4CC4)cc3)n2)n[nH]1` [Tozasertib] + COc1cc2c(Oc3ccc4[nH]c(C)cc4c3F)ncnc2cc1OCCCN1CCCC1 [cediranib] (first compound 0.03 µM, partner dose 2 µM) showed a cell count of 67.9%.

In turn, `N#CC[C@H](C1CCCC1)n1cc(-c2ncnc3[nH]ccc23)cn1` [ruxolitinib] + O=C(/C=C/c1cccnc1)NCCCCC1CCN(C(=O)c2ccccc2)CC1 [FK866] (first compound 5 µM, partner dose 0.05 µM) gave a cell count of 70%.

The compound `CC[C@]1(O)C[C@H]2CN(CCc3c([nH]c4ccccc34)[C@@](C(=O)OC)(c3cc4c(cc3OC)N(C=O)[C@H]3[C@@](O)(C(=O)OC)[C@H](OC(C)=O)[C@]5(CC)C=CCN6CC[C@]43[C@@H]65)C2)C1` [vincristine] + COc1cc(Nc2ncc(F)c(Nc3ccc4c(n3)NC(=O)C(C)(C)O4)n2)cc(OC)c1OC [Tamatinib] (first compound 0.0005 µM, partner dose 2 µM) displayed a cell count of 17.8%.

`N#CC[C@H](C1CCCC1)n1cc(-c2ncnc3[nH]ccc23)cn1` [ruxolitinib] + CC1(C)NC(=O)N(c2ccc([N+](=O)[O-])c(C(F)(F)F)c2)C1=O [nilutamide] (first compound 5 µM, partner dose 5 µM) had a cell count of 59.6%.

Consider `CC[C@]1(O)C[C@H]2CN(CCc3c([nH]c4ccccc34)[C@@](C(=O)OC)(c3cc4c(cc3OC)N(C=O)[C@H]3[C@@](O)(C(=O)OC)[C@H](OC(C)=O)[C@]5(CC)C=CCN6CC[C@]43[C@@H]65)C2)C1` [vincristine] + CC1(C)NC(=O)N(c2ccc([N+](=O)[O-])c(C(F)(F)F)c2)C1=O [nilutamide] (first compound 0.0005 µM, partner dose 5 µM), for which the cell count turned out to be 45.7%.

Turning to `N#CC[C@H](C1CCCC1)n1cc(-c2ncnc3[nH]ccc23)cn1` [ruxolitinib] + CC(C)C[C@H](NC(=O)[C@H](Cc1ccccc1)NC(=O)c1cnccn1)B(O)O [Bortezomib] (first compound 5 µM, partner dose 0.005 µM), the cell count turned out to be 29.8%.

Turning to `CC[C@]1(O)C[C@H]2CN(CCc3c([nH]c4ccccc34)[C@@](C(=O)OC)(c3cc4c(cc3OC)N(C=O)[C@H]3[C@@](O)(C(=O)OC)[C@H](OC(C)=O)[C@]5(CC)C=CCN6CC[C@]43[C@@H]65)C2)C1` [vincristine] + COC(=O)c1sccc1S(=O)(=O)Nc1ccc(Nc2ccccc2)cc1OC [GSK0660] (first compound 0.0005 µM, partner dose 5 µM), the cell count stood at 37.3%.

`N#CC[C@H](C1CCCC1)n1cc(-c2ncnc3[nH]ccc23)cn1` [ruxolitinib] + CS(=O)(=O)CCNCc1ccc(-c2ccc3ncnc(Nc4ccc(OCc5cccc(F)c5)c(Cl)c4)c3c2)o1 [lapatinib] (first compound 5 µM, partner dose 4 µM) had a cell count of 64.4%.

For the origin of these results see the supplement of paper PMC4604168 (melanoma cell lines).
